# Results from the supplement of paper PMC12645437, “Orthogonal IMiD-Degron Pairs Induce Selective Protein Degradation in Cells” (ACS Chemical Biology, 2025).
# The other results are listed elsewhere or left out.
# B1: Q9UKT9 (peptide)
# chain: FKCPQCGAKFTQKGNLLRHIKL
# B2: Q9UKT9 (peptide)
# chain: FCCPICGADFTQKGNLLRHIKL
# B3: Q9UKT9 (peptide)
# chain: FLCNQCGARFTQKGNLLRHIKL
# B4: Q9UKT9 (peptide)
# chain: FWCNQCGAHFTQKGNLLRHIKL
# B5: Q9UKT9 (peptide)
# chain: FECPICGRHFTQKGNLLRHIKL
# B6: Q9UKT9 (peptide)
# chain: FFCEICGADFTQKGNLLRHIKL
# B7: Q9UKT9 (peptide)
# chain: FTCNICGALFTQKGNLLRHIKL
# B8: Q9UKT9 (peptide)
# chain: FQCPICGAFFTQKGNLLRHIKL
# B9: Q9UKT9 (peptide)
# chain: LLCEICGFICTQKGNLLRHIKL
# B10: Q9UKT9 (peptide)
# chain: FHCNQCGAPFTQKGNLLRHIKL
# B11: Q9UKT9 (peptide)
# chain: LTCPICGFDCTQKGNLLRHIKL
# B12: Q9UKT9 (peptide)
# chain: FICNQCGHGFTQKGNLLRHIKL
# B13: Q9UKT9 (peptide)
# chain: FDCDICGASFTQKGNLLRHIKL
# B14: Q9UKT9 (peptide)
# chain: FYCNICGAVFTQKGNLLRHIKL
# B15: Q9UKT9 (peptide)
# chain: FWCPICGHFFTQKGNLLRHIKL
# B16: Q9UKT9 (peptide)
# chain: FFCNICGAQFTQKGNLLRHIKL
# B17: Q9UKT9 (peptide)
# chain: FLCNVCGAAFTQKGNLLRHIKL
# B18: Q9UKT9 (peptide)
# chain: FMCNQCGAGFTQKGNLLRHIKL
# B19: Q9UKT9 (peptide)
# chain: FRCNQCGAMFTQKGNLLRHIKL
# B20: Q9UKT9 (peptide)
# chain: FECEICGHLFTQKGNLLRHIKL
# B21: Q9UKT9 (peptide)
# chain: FKCDICGALFTQKGNLLRHIKL
# B22: Q9UKT9 (peptide)
# chain: FECPVCGADFTQKGNLLRHIKL
# B23: Q9UKT9 (peptide)
# chain: FRCNQCGAYFTQKGNLLRHIKL
# B24: Q9UKT9 (peptide)
# chain: FCCPICGATFTQKGNLLRHIKL
# B25: Q9UKT9 (peptide)
# chain: FSCPVCGARFTQKGNLLRHIKL
# B26: Q9UKT9 (peptide)
# chain: FHCNQCGRGFTQKGNLLRHIKL
# B27: Q9UKT9 (peptide)
# chain: FTCDICGANFTQKGNLLRHIKL
# B28: Q9UKT9 (peptide)
# chain: LICNQCGFPCTQKGNLLRHIKL
# B29: Q9UKT9 (peptide)
# chain: FTCNVCGAIFTQKGNLLRHIKL
# B30: Q9UKT9 (peptide)
# chain: FRCEQCGALFTQKGNLLRHIKL
# B31: Q9UKT9 (peptide)
# chain: FGCEICGRVFTQKGNLLRHIKL
# B32: Q9UKT9 (peptide)
# chain: FNCNQCGRQFTQKGNLLRHIKL
# Biological target: no compound (DMSO)
# Assay: log2 fold change of degron read counts, EGFP-low vs EGFP+ sorted cells; higher = lower degron-EGFP level without compound (poor expression or instability)
# Conditions: compound: DMSO control; 18 h
# 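Also: jurkat cells carrying a lentiviral library of mutant zinc finger degrons fused to EGFP plus mCherry, mCherry+ cells FACS sorted, degron abundance counted by next-generation sequencing.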
row,Sequence,log2 fold change of degron read counts
1,B1,-1.23
2,B2,-0.0683
3,B3,-0.664
4,B4,0.895
5,B5,-0.581
6,B6,-1.88
7,B7,-0.433
8,B8,0.00788
9,B9,1.49
10,B10,-0.308
11,B11,0.221
12,B12,-1.2
13,B13,-2.18
14,B14,0.238
15,B15,2.15
16,B16,-0.0495

row,Sequence,log2 fold change of degron read counts
1,B17,-1.34
2,B18,-0.974
3,B19,-0.376
4,B20,-1.65
5,B21,-1.35
6,B22,-0.926
7,B23,0.166
8,B24,-0.0318
9,B25,-0.198
10,B26,-0.131
11,B27,-1.73
12,B28,0.261
13,B29,-0.221
14,B30,-1.72
15,B31,-0.588
16,B32,-0.699
